The source of these data is PubChem BioAssay AID1508624 (National Center for Advancing Translational Sciences (NCATS), 2021).

Molecules are shown by their SMILES. Out of some 48,000 compounds screened, about 120 (0.25%) were called active. Not shown: some 4% with an inconclusive outcome. Calls follow the shape of the dose curve; as a rule, active = well fitted activation curve with a large enough effect; inconclusive = small, poorly fitted or top-dose-only effect, or another doubt; inactive = no such curve, though single readings can be large or run the other way. Some of the results follow.

The assay can be described thus: Primary qHTS for Identification of Small Molecule Activators of Huntingtin-Antisense Promoter Activity. Also: nearly all actives have a fitted effect of over 55% in size. Particulars: HEK293 HTT-AS promoter firefly luciferase reporter, 24 h; series mostly up to 57.5 µM; activity change, positive = activation: at the top concentration. The procedure, abridged: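 Luminescence was read after Dual-Glo reagent and a 10 min room-temperature incubation. Values were normalized to vehicle (0% activity) and zero RLU (-100% activity). Reporter HEK293 cells had been exposed to compounds (up to 57.5 uM final) for 24 h.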
On the technique in general: qHTS replaces the single test concentration by a dilution series.
Turning to `CCC(C)NC(=O)CCc1c(C)nc2nc(-c3cc(OC)cc(OC)c3)nn2c1C` (configuration not stated), the “activity change, positive = activation” value is inactive: -7.2%.

For `CC(C)(C)OC(=O)N1CCC(c2c(C(=O)NCCN3CCC(Cc4ccccc4)CC3)cnn2-c2ccc(F)cc2)CC1`, the “activity change, positive = activation” value is inactive: -23.2%.

For `Cc1ccc(NC(=O)[C@@H](c2ccccc2)N2Cc3ccccc3C2=O)cc1`, the “activity change, positive = activation” value was inactive: -0.875%.

For `COc1ccc(OC)c(CCNc2nc3ccccc3c3nc(-c4cccnc4)nn23)c1`, the “activity change, positive = activation” value is inactive: -11.2%.

In the case of `Brc1ccc(-n2nc(-c3ccccc3)c3cnc4cc5c(cc4c32)OCO5)cc1`, the “activity change, positive = activation” value is inactive: -2.99%.

Consider `Cc1ccc2[nH]c(CSc3nnc(NC(=O)c4ccc(Cl)cc4)s3)cc(=O)c2c1`, for which the “activity change, positive = activation” value was inactive: 0.851%.

As to `CCOc1ccccc1NC(=O)Cn1c(=O)n(-c2cccc(C)c2)c(=O)c2c1c1cc(OC)ccc1n2C`, the “activity change, positive = activation” value was inactive: -2.38%.

Consider `COc1ccc(C2C=C(c3ccccc3)Nc3nc(NS(=O)(=O)c4ccc(Cl)cc4)nn32)cc1` (configuration not stated), for which the “activity change, positive = activation” value was inactive: -11.1%.

With `O=C(Cn1c(=O)n(CC2CCC(C(=O)NCCc3ccccc3)CC2)c(=O)c2ccccc21)Nc1cccc(F)c1` (configuration not stated), the “activity change, positive = activation” value is inactive: -19%.

For the molecule `CC(=O)c1cc2c(cc1N/C(=N/S(=O)(=O)c1ccc(Br)cc1)c1ccccc1)OCO2`, the “activity change, positive = activation” value is inactive: -17.1%.

For the molecule `COc1ccc(C(=O)Cn2c(=O)c(-c3cc(C)ccc3NC(C)=O)nc3ccccc32)cc1`, the “activity change, positive = activation” value is inactive: -28.2%.

`COC(=O)c1ccccc1NC(=O)N1CCc2c(sc3c2CCCC3)C1c1ccc(F)cc1` (configuration not stated): the “activity change, positive = activation” value was inactive: 1.06%.

`Cc1ccccc1Cn1c(CN2CCCC(C)C2)nc2c1c(=O)n(C)c(=O)n2C` (configuration not stated): the “activity change, positive = activation” value is inactive: 15.2%.

With `CCOc1ccc(C(=O)c2cn(CC(=O)Nc3ccc(Cl)cc3)c3cc4c(cc3c2=O)OCCO4)cc1`, the “activity change, positive = activation” value is inactive: -30.8%.

`CCOc1ccc(Nc2nc(-c3c(C)nc4ccccn34)cs2)cc1`: the “activity change, positive = activation” value is inactive: -37.2%.

Regarding `Cc1ccc(C)c(N2CCN(C(=O)c3noc4c3CCCCC4)CC2)c1`, the “activity change, positive = activation” value is inactive: -24.4%.

With `COc1cc(NC(=O)c2cc(S(=O)(=O)N3CCc4ccccc43)cn2C)cc(OC)c1OC`, the “activity change, positive = activation” value was inactive: -24.2%.

On to `Cc1ccc(C)c(CN2C(=O)c3ccccc3S(=O)(=O)c3ccc(C(=O)N4CCCCC4)cc32)c1`, for which the “activity change, positive = activation” value was inactive: -6.81%.

`CC(=O)[C@H]1CC[C@H]2[C@@H]3C=CC4=CC(=O)CC[C@@]4(C)[C@@H]3CC[C@]12C`: the “activity change, positive = activation” value is inactive: -24.3%.

For `COc1ccc(OC)c(NC(=O)c2cnn(-c3ccc(C)cc3)c2C2CCNCC2)c1`, the “activity change, positive = activation” value was inactive: -1.96%.

Regarding `CCc1ccccc1N(C)C(=O)c1cc2c(=O)oc3ccccc3c2s1`, the “activity change, positive = activation” value is inactive: -4.39%.

Regarding `CC(C)CC(=O)Nc1c(C(=O)N2CCN(c3ccccc3)CC2)oc2ccccc12`, the “activity change, positive = activation” value is inactive: -16.2%.

On to `CCCCCOC(=O)Nc1nc(=O)n([C@@H]2O[C@H](C)[C@@H](O)C2O)cc1F` (some centres not stated), for which the “activity change, positive = activation” value is inactive: 9.84%.

For the molecule `COc1cc2c(=O)n(CCc3ccccc3)c(=O)n(CC(=O)Nc3ccccc3)c2cc1OC`, the “activity change, positive = activation” value is inactive: -35.1%.

On to `O=C(COc1ccccc1[N+](=O)[O-])N(Cc1ccco1)c1ccccn1`, for which the “activity change, positive = activation” value was inactive: 21.9%.

Take `O=C(C1CCC1)N1CCc2cc(S(=O)(=O)NCc3ccc(F)cc3)ccc21`: the “activity change, positive = activation” value is inactive: -27.9%.

As for `COc1ccc(C)cc1NC(=O)N1CCCn2nc(C)cc21`, the “activity change, positive = activation” value is inactive: -20%.

For the molecule `COc1ccc(NC(=O)Cn2c(SCc3cc(C)ccc3C)nc3ccncc32)c(OC)c1OC`, the “activity change, positive = activation” value was inactive: -19.3%.

Consider `COc1ccc2c(CNCc3cccs3)c(C(=O)O)n(Cc3ccccc3)c2c1`, for which the “activity change, positive = activation” value is inactive: -18%.

For `Cc1c(CCNC(=O)c2ccc(Br)o2)sc2nc(-c3ccc(F)cc3)nn12`, the “activity change, positive = activation” value was inactive: -43.9%.

As for `CCOc1ccccc1NC(=O)Cn1cc(C(=O)c2cccc(OC)c2)c(=O)c2ccc(C)nc21`, the “activity change, positive = activation” value was inactive: -33.8%.

Take `O=C(Cn1c(=O)c2cccn2c2ccccc21)NCCc1ccccc1`: the “activity change, positive = activation” value was inactive: -6.36%.

As for `COc1cc(NC(=O)CN(c2ccc(C)cc2)S(=O)(=O)c2cccc3nonc23)cc(OC)c1`, the “activity change, positive = activation” value is inactive: -12.2%.

In the case of `CCOc1ccccc1C(=O)Nc1ccc(S(=O)(=O)Nc2nc(C)cc(C)n2)cc1`, the “activity change, positive = activation” value is inactive: -4.76%.

`CCc1cccc(NC(=O)CSC2=Nc3ccccc3N=C(c3ccc(F)cc3)C2)c1`: the “activity change, positive = activation” value was inactive: -37.1%.

As to `Cc1ccc2nc(NC(=O)COc3ccc(F)cc3)sc2c1`, the “activity change, positive = activation” value is inactive: 1.16%.

With `Cc1ccc(NC(=O)Cn2cnc3sc(C(=O)O)c(C)c3c2=O)cc1Cl`, the “activity change, positive = activation” value is inactive: -1.44%.

In the case of `O=C(CSc1nnc(CNC(=O)c2cccc(F)c2)n1-c1ccccc1)Nc1ccccc1F`, the “activity change, positive = activation” value is inactive: -19.5%.

For the molecule `CCN1CCN(c2nc3c(S(=O)(=O)c4ccc(Br)cc4)nnn3c3ccsc23)CC1`, the “activity change, positive = activation” value was inactive: -8.79%.

Regarding `CN[C@@H](C)C(=O)N[C@H]1CN(C(=O)CC(C)C)CC[C@H]2CC[C@@H](C(=O)NC(c3ccccc3)c3ccccc3)N2C1=O`, the “activity change, positive = activation” value was inactive: -31.8%.

For the molecule `Fc1ccc(-c2noc3ncnc(NCCc4ccccc4)c23)cc1`, the “activity change, positive = activation” value is inactive: -36.4%.

As for `COc1ccc(Nc2nc(-c3ccc(C)cc3)nc3ccccc23)c(OC)c1`, the “activity change, positive = activation” value was inactive: -17.5%.

With `CCCCCn1c(C(C)NC(=O)c2ccccc2)nc2ccccc21` (configuration not stated), the “activity change, positive = activation” value is inactive: -20%.

On to `CCOc1ccc(-c2nonc2NC(=O)COc2c(C)cc(C)cc2C)cc1OCC`, for which the “activity change, positive = activation” value is inactive: -8.41%.

Turning to `COc1ccc2c(c1)c1c(c(=O)n(Cc3ccccc3)c(=O)n1CC(=O)NCc1ccccc1Cl)n2C`, the “activity change, positive = activation” value is inactive: -3.9%.

Consider `CCOc1cc(CNC(=O)C2COc3ccccc3C2)cc(OCC)c1OCC` (configuration not stated), for which the “activity change, positive = activation” value was inactive: 5.56%.

`Cc1cccn2c(=O)c(/C=C(\C#N)c3nc4ccccc4[nH]3)c(Oc3ccc(C(C)(C)C)cc3)nc12`: the activity change, positive = activation was inactive: 2.23% [at 11.5 µM, percent change from vehicle, -100% = no light].
